Hit rate of the full screen: of about 350,000 compounds, about 260 (0.074%) were called active. Inconclusive means that the source gave no clear call. Such entries were picked first, then a sample of the others. Calls come from the whole dose curve; as a rule, active = well fitted inhibition curve with a large enough effect; inconclusive = small, poorly fitted or top-dose-only effect; inactive = no such curve, though single readings can be large or run the other way. A potency beside an inconclusive call is a rough fit, not a confirmed value.
The compounds below were run against Ferritin light chain (Equus caballus) (UniProt P02791) (assay: qHTS Assay for Identification of Novel General Anesthetics). Conditions: apoferritin/1-aminoanthracene competitive binding, fluorescence; activity change, negative = displacement: at 77.5 µM (top of the series).
Chain of UniProt P02791 (P02791 whole entry, looked up): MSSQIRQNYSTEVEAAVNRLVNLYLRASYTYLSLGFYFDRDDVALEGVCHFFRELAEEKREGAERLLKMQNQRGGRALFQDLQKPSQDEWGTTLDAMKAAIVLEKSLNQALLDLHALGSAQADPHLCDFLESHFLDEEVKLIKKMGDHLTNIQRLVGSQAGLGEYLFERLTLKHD
In short: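 Horse-spleen apoferritin (10 uM) in 50% saturated 1-aminoanthracene in PBS was incubated 10 min at room temperature with compound. Fluorescence (ex 380, em 535 nm) was normalized to free and bound 1-AMA, with concentration-response fitted by a four-parameter Hill equation.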
% is set by controls: 0 for no effect and ±100 for the full control effect; potency is the fitted concentration of half-maximal effect; tags give direction and shape of the fitted curve.
Note: nearly all actives have a fitted effect of over 20% in size.

SMILES | Potency | activity change, negative = displacement
CC(CC(=O)Nc1cc([N+](=O)[O-])ccc1Cl)c1ccccc1 (configuration not stated) | inconclusive: 14.1 µM [inhibitor, partial curve] | –
Cc1ccc(NC(=O)Cn2c(=O)n(CCC(=O)NCc3ccccc3Cl)c(=O)c3ccccc32)cc1 | inconclusive: 11.2 µM [inhibitor, single point] | –
CCCS(=O)(=O)N1CCN(C(=O)c2ccco2)CC1 | inconclusive: 0.794 µM [inhibitor, full curve] | –
COc1ccc(CCn2c(C)cc(C(=O)CSc3nnc(N)s3)c2C)cc1 | inconclusive: 15.8 µM [inhibitor, partial curve] | –
Cc1ccc2c(c1)C(O)(c1c(C)[nH]c3ccccc13)C(=O)N2 (configuration not stated) | inconclusive: 35.5 µM [inhibitor, partial curve] | –
CC(C)OC(=O)C(C)Nc1ccc(F)c(Cl)c1 (configuration not stated) | inconclusive: 22.4 µM [inhibitor, partial curve] | –
Cc1ccccc1NC1=C(C(=O)c2ccccc2)N(C)S(=O)(=O)c2ccccc21 | inconclusive: 4.47 µM [inhibitor, partial curve] | –
Cc1cc(C)c2c(=O)[nH]c(SCC(=O)c3ccc(C)c(C)c3)nc2n1 | inconclusive: 8.91 µM [inhibitor, partial curve] | –
O=C(Cn1nc(Cc2cccnc2)c2ccccc2c1=O)NCc1ccc2c(c1)OCO2 | inconclusive: 39.8 µM [inhibitor, single point] | –
Cc1ccc(C)c(N2CCN(C(=O)c3ccc4c(=O)n5c(nc4c3)CCCCC5)CC2)c1 | inconclusive: 31.6 µM [inhibitor, partial curve] | –
COc1ccc(Cn2ccnc2SCC(=O)Nc2ccccc2)cc1 | inconclusive: 31.6 µM [inhibitor, partial curve] | –
Cc1cc(C(C)(C)C)ccc1OCCN1CCCC1 | inconclusive: 11.2 µM [inhibitor, partial curve] | –
CC(=O)N1CCCC1c1nc2ccccc2n1Cc1ccccc1C (configuration not stated) | inconclusive: 1 µM [inhibitor, full curve, poor fit] | –
CC1CCN(S(=O)(=O)c2ccc3c(ccn3CCC(=O)NCc3ccc(N(C)C)cc3)c2)CC1 | inconclusive: 2.82 µM [inhibitor, full curve, poor fit] | –
c1ccc(-c2nc3nc4ccccc4nc3n2Cc2ccco2)cc1 | inconclusive: 39.8 µM [inhibitor, partial curve] | –
COc1cccc(CNc2ccc(Br)cn2)c1O | inconclusive: 25.1 µM [inhibitor, partial curve] | –
Cc1cccc(N2CCN(C(=O)Cn3nc(Cc4cccnc4)c4ccccc4c3=O)CC2)c1C | – | inactive: 2.75%
COc1ccc(C2NC(=S)NC3=C2CCc2cc(OC)ccc23)cc1 (configuration not stated) | – | inactive: -0.588%
O=C(OCn1nnc2ccccc2c1=O)c1ccc2ncsc2c1 | inconclusive: 31.6 µM [inhibitor, partial curve] | –
CC(C)C1C(C#N)=C(N)Oc2n[nH]c(-c3ccc4ccccc4c3)c21 (configuration not stated) | inconclusive: 10 µM [inhibitor, partial curve] | –
O=C(c1cccc(Cl)c1)C1CCCN(Cc2ccc(N3CCNC3=O)cc2)C1 (configuration not stated) | inconclusive: 35.5 µM [inhibitor, single point] | –

SMILES | Potency | activity change, negative = displacement
CC(C)(C)c1ccc(-c2nc(SCC(=O)Nc3ccccc3F)n3[nH]c(=O)cc3n2)cc1 | inconclusive: 25.1 µM [inhibitor, partial curve] | –
COCC1CCN(Cc2cn(Cc3ccccc3)nc2-c2cc3ccccc3o2)CC1 | inconclusive: 35.5 µM [inhibitor, partial curve] | –
COc1ccc(/C=C/c2nc(S(=O)(=O)c3ccccc3)c(N(C)C)o2)cc1OC | inconclusive: 22.4 µM [inhibitor, single point] | –
COC(=O)c1ccc2c(c1)C(C)(C)C(/C=C/c1ccccc1O)=[N+]2C | inconclusive: 20 µM [inhibitor, partial curve] | –
O=C(Nc1ccc(Cl)c(C(F)(F)F)c1)C1CCN(S(=O)(=O)c2cccc3nonc23)CC1 | – | inactive: -16.9%
CN(C)CCCOc1ccc(C(C)(C)c2ccccc2)cc1 | active: 15.8 µM | –
CC(NC(=O)COC(=O)CSCc1ccccc1)c1ccccc1 (configuration not stated) | inconclusive: 12.6 µM [inhibitor, partial curve] | –
Cc1cccc(C)c1OCCn1nnc2ccccc21 | inconclusive: 28.2 µM [inhibitor, partial curve] | –
O=C(Nc1cccc(Cl)c1)ON=C1c2ccccc2-c2ccccc21 | inconclusive: 25.1 µM [inhibitor, partial curve] | –
CC(C)(C)c1ccc(C(=O)N2CCC(c3nc4ccccc4o3)CC2)cc1 | – | inactive: -2.14%
Nc1nnc(CCOc2ccc(Cl)cc2)s1 | – | inactive: -14.5%
Clc1cccc(CSc2ccc(-c3ccco3)nn2)c1 | inconclusive: 35.5 µM [inhibitor, single point] | –
Cc1cc(NC(=O)COC(=O)COc2ccc3c(c2)CCC3)no1 | inconclusive: 14.1 µM [inhibitor, partial curve] | –
O=C(CSc1ccc2c(c1)OCCO2)Nc1ncc(Cl)cc1Cl | inconclusive: 12.6 µM [inhibitor, partial curve] | –
CCCCCCOC(=O)Sc1nc2ccccc2o1 | inconclusive: 44.7 µM [inhibitor, partial curve] | –
COc1cc(/C=N/NC(=O)CCOc2ccccc2C)cc(Br)c1O | inconclusive: 50.1 µM [inhibitor, single point] | –
Cc1ccc(OCc2ccc(-c3nc(C#N)c(NCc4ccccc4Cl)o3)o2)cc1 | – | inactive: 139%
Cc1cc(NC(=O)CSc2nc3c(C)ccc(C)c3cc2C#N)no1 | – | inactive: -9.71%
O=C1CC(c2ccccc2)c2ccc(O)cc2O1 (configuration not stated) | inconclusive: 44.7 µM [inhibitor, single point] | –
O=C(CC1(O)C(=O)N(C/C=C/c2ccccc2)c2ccccc21)c1ccccn1 (configuration not stated) | inconclusive: 35.5 µM [inhibitor, partial curve] | –
O=C(Nc1ccccc1N1CCOCC1)c1ccc(Cl)c(S(=O)(=O)NCc2ccco2)c1 | inconclusive: 20 µM [inhibitor, partial curve] | –
